Results from paper PMC10963788.
These are yes or no findings as the source states them, for the method shown. For part of these data: In cells and extracts the contact can be indirect. Some entries that bind do so weakly or less than the wild type. For part of these data: Sequences can lack the tags named with a protein.

Legend:
[1] = target: T1, vesicle-trafficking protein SEC22B, mouse, endogenous (mouse (endogenous in mouse brain tissue, SIM-A9 cells and hippocampal slice cultures)) (UniProt O08547); assay: co-IP; SEC22B IP or SNAP29 IP from SIM-A9 cell lysates (Co-IP buffer: 20 mM tris-HCl pH 8.0, 100 mM NaCl, 1 mM EDTA, 0.5% Igepal); cells with Ska2 knockdown, Ska2 overexpression, Fkbp5 overexpression, Fkbp5 knockout or their controls; western blot, quantified
T1 sequence: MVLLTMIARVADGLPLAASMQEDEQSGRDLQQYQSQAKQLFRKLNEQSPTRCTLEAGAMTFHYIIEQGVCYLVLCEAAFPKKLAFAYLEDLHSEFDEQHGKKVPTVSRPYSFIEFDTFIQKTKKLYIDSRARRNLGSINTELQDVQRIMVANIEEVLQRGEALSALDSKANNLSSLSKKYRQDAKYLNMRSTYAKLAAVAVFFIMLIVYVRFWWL

[2] = target: T2, spindle and kinetochore-associated complex subunit 2 (SKA2), mouse, endogenous (mouse (endogenous in mouse brain tissue and SIM-A9 cells)) (UniProt Q9CR46); assay: co-IP; SKA2 IP from mouse prefrontal cortex, hippocampus and amygdala tissue lysates; 2.5 μg antibody overnight at 4 °C, protein G Dynabeads, washed with PBS; western blot
T2 sequence: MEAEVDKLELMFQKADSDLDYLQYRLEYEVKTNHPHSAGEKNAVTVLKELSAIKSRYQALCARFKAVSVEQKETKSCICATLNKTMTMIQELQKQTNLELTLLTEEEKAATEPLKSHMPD

[3] = target: T1, vesicle-trafficking protein SEC22B, mouse, endogenous (mouse (endogenous in mouse brain tissue, SIM-A9 cells and hippocampal slice cultures)); assay: co-IP; protein lysates of mouse organotypic hippocampal slice cultures, with Ska2 knockdown or control; precipitating antibody not stated for this experiment
[4] = target: T3, synaptosomal-associated protein 29 (SNAP29), mouse, endogenous (mouse (endogenous in mouse brain tissue, SIM-A9 cells and hippocampal slice cultures)) (UniProt Q9ERB0); assay: co-IP; SEC22B IP or SNAP29 IP from SIM-A9 cell lysates (Co-IP buffer: 20 mM tris-HCl pH 8.0, 100 mM NaCl, 1 mM EDTA, 0.5% Igepal); cells with Ska2 knockdown, Ska2 overexpression, Fkbp5 overexpression, Fkbp5 knockout or their controls; western blot, quantified
T3 sequence: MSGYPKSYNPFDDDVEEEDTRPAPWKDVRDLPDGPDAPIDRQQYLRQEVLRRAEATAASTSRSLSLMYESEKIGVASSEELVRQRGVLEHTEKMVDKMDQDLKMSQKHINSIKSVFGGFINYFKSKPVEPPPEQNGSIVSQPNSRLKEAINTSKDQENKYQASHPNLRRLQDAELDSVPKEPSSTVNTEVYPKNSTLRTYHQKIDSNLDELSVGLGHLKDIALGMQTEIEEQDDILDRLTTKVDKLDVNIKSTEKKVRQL

[5] = target: T4, HIS-SKA2 (Abcam, AB199577-1001) (UniProt Q8WVK7); assay: pull-down; HIS pull-down: 200 ng HIS-SKA2 immobilised on BSA-blocked anti-His protein G Dynabeads; 100 ng purified DDK-tagged protein; 400 μl binding buffer (Promega, V870B); eluted at room temperature and at 95 °C; western blot against HIS and FLAG; both purified
T4 sequence: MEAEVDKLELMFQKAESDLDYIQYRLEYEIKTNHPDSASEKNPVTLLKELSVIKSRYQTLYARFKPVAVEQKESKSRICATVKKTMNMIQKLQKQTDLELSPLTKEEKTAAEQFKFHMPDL

[6] = target: T3, synaptosomal-associated protein 29 (SNAP29), mouse, endogenous (mouse (endogenous in mouse brain tissue, SIM-A9 cells and hippocampal slice cultures)); assay: co-IP; SNAP29 IP from tissue homogenates of the mouse hippocampus

B1: synaptosomal-associated protein 29 (SNAP29), mouse, endogenous (protein, UniProt Q9ERB0 1-260)
chain: T3 sequence
Which results are given for B1?
binding [1]: binds; binding [2]: binds; binding [3]: binds

B2: vesicle-trafficking protein SEC22B, mouse, endogenous (protein, UniProt O08547 1-215)
chain: T1 sequence
Which binding [2] does the source give for B2 here?
Its binding is “binds”.

B3: syntaxin 3 (STX3), mouse, endogenous (protein, UniProt Q64704 1-289)
chain: MKDRLEQLKAKQLTQDDDTDEVEIAIDNTAFMDEFFSEIEETRLNIDKISEHVEEAKKLYSIILSAPIPEPKTKDDLEQLTTEIKKRANNVRNKLKSMEKHIEEDEVRSSADLRIRKSQHSVLSRKFVEVMTKYNEAQVDFRERSKGRIQRQLEITGKKTTDEELEEMLESGNPAIFTSGIIDSQISKQALSEIEGRHKDIVRLESSIKELHDMFMDIAMLVENQGEMLDNIELNVMHTVDHVEKARDETKRAMKYQGQARKKLIIIIVVVVVLLGILALIIGLSVGLK
How did the binding [1] turn out when B3 was run?
The binding was “binds”.

B4: spindle and kinetochore-associated complex subunit 2 (SKA2), mouse, endogenous (protein, UniProt Q9CR46 1-120)
chain: T2 sequence
Which binding [4] does the source give for B4 here?
The binding was “binds”.

B5: SNAP23-DDK (Origene, TP301596) (protein, UniProt O00161 1-211)
chain: MDNLSSEEIQQRAHQITDESLESTRRILGLAIESQDAGIKTITMLDEQKEQLNRIEEGLDQINKDMRETEKTLTELNKCCGLCVCPCNRTKNFESGKAYKTTWGDGGENSPCNVVSKQPGPVTNGQLQQPTTGAASGGYIKRITNDAREDEMEENLTQVGSILGNLKDMALNIGNEIDAQNPQIKRITDKADTNRDRIDIANARAKKLIDS
B5 was tested. Which binding [5] did it give?
Its binding is “no binding (tested: 100 ng in 400 μl)”.

B6: SKA1, mouse, endogenous (protein, UniProt Q9CPV1 1-254)
chain: MDSELEDLCSYVNEKIGNIKKILSIRNLGQDPALKTTLSKIGDEIIAVNELLNKFELEIQYQEQTNSSLKELCESLREECEDVEHLKEHVPPHLPQVTATQSLVHKPEPDPKESDKAEEPGLPKKPPREQRIIKEMQFITMDEFSDVPAYMKSRLTYCQINDIIKEINKAVVSKYKIMHQPKASMSSVKRNLYQRFINEETKDTKGHHFIVEADIKEFTALKVDKRFYVIMHILRHCHRLSEVRGGGLTRYVIT
How did the binding [6] turn out when B6 was run?
Its binding is “no binding”.

B7: SKA3, mouse, endogenous (protein, UniProt Q8C263 1-411)
chain: MNPIQSFHCKLRGLATTLDSETARLLRALDGEDSDFEDSPGRILHDLHSEVQTLKDNVNALLDEARLENQESTRFKKATKILMEKNSADVRKLREFFQKYGYQARDKEDSGCEHRVNNSTPELAVCKDIQKAGVKELSDPCVPSGSVSEEPLRSPQLSDFGLQRYIISQVPANPPQTAASLKEERVAETPPAKDPSVQVLKTPRCALRMDDFECETPKLEHFGISEHTMCLNEDYTMGLKNMKNIKSSLLSGVSGEAIGTGPVTSDNSFAIPGPIIQQMEENDVEYVSSPLPPKFCTPGLKIPSTMDRTDLVSIDYPLSKPNSSSTDLEIKDCVPLILNSDECYQSFAEPPSSAITSCENFATPSPPKVTAIPEDILQMITKHSSNLASPLDVKVMPRRKGTRGAANKENW
B7 was tested. Which binding [6] did it give?
Its binding is “no binding”.
